Source: the supplement of paper PMC4967469

What was measured:
Test in all cases: Viability of human cancer cell lines after 72 h of drug (GDSC screen)
Docetaxel = compound: CC(=O)O[C@@]12CO[C@@H]1C[C@H](O)[C@@]1(C)C(=O)[C@H](O)C3=C(C)[C@@H](OC(=O)[C@H](O)[C@@H](NC(=O)OC(C)(C)C)c4ccccc4)C[C@@](O)([C@@H](OC(=O)c4ccccc4)[C@H]21)C3(C)C [Docetaxel]; details: top dose 0.0125 µM
Description: (§1)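 Human cancer cell lines in 384-well plates, medium with 10% serum, drug for 72 h over a 256-fold dose range (nine 2-fold or five 4-fold steps up to the top dose). Adherent lines were fixed and stained with the nucleic acid dye Syto60, suspension lines read with resazurin; signal relative to control wells, capped at 0 and 100%. One two-parameter sigmoid per drug and line, fitted in a mixed model over all curves with the slope shared within a line.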

OSI-906 = compound: C[C@]1(O)C[C@@H](c2nc(-c3ccc4ccc(-c5ccccc5)nc4c3)c3c(N)nccn32)C1 [OSI-906]; details: top dose 2.56 µM; top dose inferred
Description: as §1

Cyclopamine = compound: CC1=C2C[C@H]3[C@@H](CC=C4C[C@@H](O)CC[C@@]43C)[C@@H]2CC[C@]12O[C@@H]1C[C@H](C)CN[C@H]1[C@H]2C [Cyclopamine]; details: top dose 16 µM; top dose inferred
Description: as §1

AMG-706 = compound: CC1(C)CNc2cc(NC(=O)c3cccnc3NCc3ccncc3)ccc21 [AMG-706]; details: top dose 2 µM; top dose inferred
Description: as §1

NSC-207895 = compound: CN1CCN(c2ccc([N+](=O)[O-])c3no[n+]([O-])c23)CC1 [NSC-207895]; details: top dose 20 µM; top dose inferred
Description: as §1

JNJ-26854165 = compound: c1ccc2c(CCNc3ccc(Nc4ccncc4)cc3)c[nH]c2c1 [JNJ-26854165]; details: top dose 10 µM
Description: as §1

YM155 = compound: COCC[n+]1c2c(n(Cc3cnccn3)c1C)C(=O)c1ccccc1C2=O [YM155]; details: top dose 5.12 µM
Description: as §1

Belinostat = compound: O=C(/C=C/c1cccc(S(=O)(=O)Nc2ccccc2)c1)NO [Belinostat]; details: top dose 20 µM; top dose inferred
Description: as §1

SB-715992 = compound: Cc1ccc(C(=O)N(CCCN)[C@@H](c2nc3cc(Cl)ccc3c(=O)n2Cc2ccccc2)C(C)C)cc1 [SB-715992]; details: top dose 0.128 µM; top dose inferred
Description: as §1

JNK Inhibitor VIII = compound: CCOc1nc(NC(=O)Cc2cc(OC)ccc2OC)cc(N)c1C#N [JNK Inhibitor VIII]; details: top dose 10 µM; top dose inferred
Description: as §1

JQ1 = compound: Cc1sc2c(c1C)C(c1ccc(Cl)cc1)=N[C@@H](CC(=O)OC(C)(C)C)c1nnc(C)n1-2 [JQ1]
Description: as §1

FTI-277 = compound: COC(=O)[C@H](CCSC)NC(=O)c1ccc(NC[C@@H](N)CS)cc1-c1ccccc1 [FTI-277]; details: top dose 1.024 µM; top dose inferred
Description: as §1

CGP-60474 = compound: OCCCNc1cc(-c2ccnc(Nc3cccc(Cl)c3)n2)ccn1 [CGP-60474]; details: top dose 0.256 µM; top dose inferred
Description: as §1

[1] = top dose 1 µM, screen: GDSC drug entry 1218, top dose inferred
[2] = top dose 2.56 µM, screen: GDSC drug entry 163

Cell Line	AUC (Docetaxel)	IC50 (Docetaxel) [nM]	AUC (OSI-906)	IC50 (OSI-906) [nM]	AUC (Cyclopamine)	IC50 (Cyclopamine) [nM]	AUC (AMG-706)	IC50 (AMG-706) [nM]	AUC (NSC-207895)	IC50 (NSC-207895) [nM]	AUC (JNJ-26854165)	IC50 (JNJ-26854165) [nM]	AUC (YM155)	IC50 (YM155) [nM]	AUC (Belinostat)	IC50 (Belinostat) [nM]	AUC (SB-715992)	IC50 (SB-715992) [nM]	AUC (JNK Inhibitor VIII)	IC50 (JNK Inhibitor VIII) [nM]	AUC (JQ1; [1])	IC50 (JQ1; [1]) [nM]	AUC (JQ1; [2])	IC50 (JQ1; [2]) [nM]	AUC (FTI-277)	IC50 (FTI-277) [nM]	AUC (CGP-60474)	IC50 (CGP-60474) [nM]
GOTO (neuroblastoma, adherent)	0.698	3.06	0.944	> 2560	0.981	> 16000	0.781	949	0.882	> 20000	0.809	6130	0.134	< 20	0.509	1330	0.93	> 128	0.808	6080	0.946	> 1000	0.754	970	0.974	> 1020	0.749	93.1
GRANTA-519 (B-cell lymphoma, suspension)	0.891	12	0.991	> 2560	0.987	> 16000	0.991	> 2000	0.99	> 20000	0.936	> 10000	0.035	< 20	0.605	2340	0.754	39.2	0.99	> 10000	0.984	> 1000	0.954	> 2560	0.99	> 1020	0.851	167
HA7-RCC (kidney, adherent)	0.872	> 12.5	0.824	1740	0.978	> 16000	0.958	> 2000	0.983	> 20000	0.811	6000	0.984	> 5120	0.984	> 20000	0.954	> 128	0.963	> 10000	0.903	> 1000	0.66	469	0.94	> 1020	0.749	90.5
HAL-01 (lymphoblastic leukaemia, suspension)	0.989	> 12.5	0.966	> 2560	0.972	> 16000	0.985	> 2000	0.904	> 20000	0.821	4940	0.633	711	0.169	146	0.806	56.2	0.987	> 10000	0.677	183	0.623	335	0.986	> 1020	0.71	57.8
HCC2157 (breast, suspension)	0.747	4.16	0.924	> 2560	0.973	> 16000	0.987	> 2000	0.984	> 20000	0.906	> 10000	0.167	29	0.582	2120	0.925	> 128	0.986	> 10000	0.984	> 1000	0.57	252	0.978	> 1020	0.797	127
HDLM-2 (Hodgkin lymphoma, suspension)	0.813	6.6	0.97	> 2560	0.958	> 16000	0.988	> 2000	0.961	> 20000	0.842	6840	0.03	< 20	0.82	11200	0.618	16.8	0.987	> 10000	0.984	> 1000	0.764	915	0.984	> 1020	0.843	177
HH (T-cell leukaemia, suspension)	0.926	> 12.5	0.963	> 2560	0.95	> 16000	0.968	> 2000	0.865	> 20000	0.836	> 10000	0.048	< 20	0.371	487	0.629	20.5	0.975	> 10000	0.571	105	0.534	204	0.876	> 1020	0.725	87.8
IMR-5 (neuroblastoma, adherent)	0.947	> 12.5	0.982	> 2560	0.991	> 16000	0.992	> 2000	0.894	17300	0.989	> 10000	0.05	< 20	0.463	1010	0.537	9.93	0.992	> 10000	0.794	380	0.562	229	0.992	> 1020	0.707	55
JVM-3 (lymphoid neoplasm, suspension)	0.698	2.83	0.987	> 2560	0.987	> 16000	0.98	> 2000	0.951	> 20000	0.718	2630	0.081	< 20	0.324	401	0.982	> 128	0.983	> 10000	0.795	471	0.987	> 2560	0.987	> 1020	0.954	> 256

IC50 is the fitted dose that halves viability relative to control wells, and lower means more sensitive; a fit beyond the top or the lowest dose is shown as a bound at that dose. For AUC the same curve is integrated over the 256-fold range of doses and scaled to a fraction: 1 means no effect, lower means more sensitive. For part of these data: A top dose marked as inferred comes from the curve model; the source does not state it. For part of these data: Where an entry number is given, a second screen of the drug exists; the two often differ.
